The results in this text go back to paper PMC5892938.

This is one part of the list. At the low end of the ranking the order means little.

The experiment has as its target GST-SBP-SLBP (stem-loop binding protein) (UniProt Q14493). Briefly: targeted RNA Bind-n-Seq.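 Further: DESeq read counts versus GST-SBP nonspecific binding control pulldown.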 Particulars: RBNS binding buffer: 25 mM Tris pH 7.5, 150 mM KCl, 3 mM MgCl2, 0.1% Tween, 0.5 mg/mL BSA, 1 mM DTT; 27 nM protein, 750 pM RNA pool; temperature not stated; high values mean tight binding.
On to “GGUCACGUCUCAAUCAACUCUACUCCCAGGGAAAGCCCUGGUUAUCUCAACAGCUCGCAGUCAAG”, for which the binding signal (log2 fold change) was -0.226.
Then “GGUCACGUCUCAAUCAACUCUAUGUCAGGAGUUUUCUCCUGUUUUCUCAACAGCUCGCAGUCAAG”, with 0.0161; and “GGUCACGUCUCAAUCAACUCAUCUUCAGGAGUUUUCUCCUGCAUUCUCAACAGCUCGCAGUCAAG”, with 0.0362.
Then “GGUCACGUCUCAAUCAACUCAUCUCCAGGAGUUUUCUCCUGCUUUCUCAACAGCUCGCAGUCAAG”, with 0.24; and “GGUCACGUCUCAAUCAACUCAUUCUCAGGAGUUUACUCCUGCAAUCUCAACAGCUCGCAGUCAAG”, with 0.261; and “GGUCACGUCUCAAUCAACUCACUCGAGGGGGGGAAAACCCCUUUACCCUCAUCAUCAACAGCUCGCAGUCAAG”, with 0.11.
The value for “GGUCACGUCUCAAUCAACUCUCUAGAGGGGGGGAAAACCCCUUUGCCCUCACAAUCAACAGCUCGCAGUCAAG” was -0.293; that for “GGUCACGUCUCAAUCAACUCUUUUCCCAGGGAAAGCCCUGGUUAUCUCAACAGCUCGCAGUCAAG” was -0.104.
In the case of “GGUCACGUCUCAAUCAACUCUAUAGAGGGGGGGAAAACCCCUUUGCCCUCAUCAUCAACAGCUCGCAGUCAAG”, the binding signal (log2 fold change) is -0.103.
The value for “GGUCACGUCUCAAUCAACUCAUUAGAGGGGGGGAAAACCCCUUUACCCUCGUCUUCAACAGCUCGCAGUCAAG” was 0.284; that for “GGUCACGUCUCAAUCAACUCAUUAGAGGGGGGGAAAACCCCUUUACCCUCGUUCUCAACAGCUCGCAGUCAAG” was -0.263.
The value for “GGUCACGUCUCAAUCAACUCUUUUCCCAGGGAAAGCCCUGGUAUACUCAACAGCUCGCAGUCAAG” was 0.205; that for “GGUCACGUCUCAAUCAACUCUCACGAGGGGGGGAAAACCCCUUUACCCUCUUCAUCAACAGCUCGCAGUCAAG” was -0.505.
Then “GGUCACGUCUCAAUCAACUCAAUCUCAGGAGUUUACUCCUGCAAUGUCAACAGCUCGCAGUCAAG”, with 0.00748; and “GGUCACGUCUCAAUCAACUCUAUUUCAGGAGUUUACUCCUGCAAACUCAACAGCUCGCAGUCAAG”, with -0.0494; and “GGUCACGUCUCAAUCAACUCUUCCUCAGGAGUUUACUCCUGUUAAUUCAACAGCUCGCAGUCAAG”, with -0.243.
Consider “GGUCACGUCUCAAUCAACUCAUCCCCAGGAGUUUACUCCUGCAUAUUCAACAGCUCGCAGUCAAG”, for which the binding signal (log2 fold change) came out at 0.113.
Then “GGUCACGUCUCAAUCAACUCAAUCGAGGGGGGGAAAACCCCUUUACCCUCCUAAUCAACAGCUCGCAGUCAAG”, with -0.24; and “GGUCACGUCUCAAUCAACUCUAUCCCCAGGGAAAUCCCUGGUAAACUCAACAGCUCGCAGUCAAG”, with 0.0918.
The value for “GGUCACGUCUCAAUCAACUCGUUUUCAGGAGUUUCCUCCUGUUUUUUCAACAGCUCGCAGUCAAG” was 0.0127.
